# According to PubChem BioAssay AID1159580 (chemical genetic matrix, 2015):
# About 2,000 (36%) of roughly 5,500 compounds were called active. Cut-off read from the data, not from the text of the source: active = normalized growth mostly below about 0.91 (no sharp cut-off); inconclusive = no clear call, values can overlap the other calls; inactive = mostly above about 0.92. Inconclusive results, whose numbers are uncertain, are shown. The source holds several records for some structures; these can differ, active in one and inactive in another. Where a SMILES comes first, the peptide text is derived from it.
# Assay: chemical genetic growth profiling, strain panel (AID 1159580);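 note: tested at 20 µM; growth read once vehicle control cultures reached saturation at 30 °C; 1 = growth at the plate median or of vehicle wells; lower values mean less growth of the strain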
# Conditions: S. cerevisiae deletion strains, growth OD
# [1] = locus YKL009W, strain mrt4, hits give low values
# [2] = locus YNL175C, strain NOP13, hits give low values
# [3] = locus YMR263W, strain SAP30, hits give low values
# [4] = locus YPL241C, strain CIN2, hits give low values
# [5] = locus YOL078W, strain AVO1, hits give low values
# [6] = locus YIL125W, strain kgd1, hits give low values
smiles,measurement,setting,value
O=C1C=CC2=C3c4cc(O)c(O)cc4CC3(O)COC2=C1O (centres undefined),normalized growth,"locus YMR231W, strain pep5, hits give low values",inconclusive: 0.926 [sensitive]
COC(=O)CCC(C)[C@H]1CCC2C3C(C[C@H](O)[C@@]21C)[C@@]1(C)CC[C@@H](O)C[C@H]1C[C@H]3O (some centres undefined),normalized growth,"locus YBR231C, strain swc5, hits give low values",inconclusive: 0.865 [sensitive]
O=c1c2ccccc2[se]n1-c1ccccc1,normalized growth,[1],inconclusive: 0.829 [sensitive]
NCCCS(=O)(=O)O,normalized growth,[1],inconclusive: 0.87 [sensitive]
Clc1ccc(C(c2ccccc2Cl)C(Cl)Cl)cc1 (centres undefined),normalized growth,[2],inconclusive: 0.753 [sensitive]
same,normalized growth,"locus YOR083W, strain WHI5 (second series), hits give low values",inconclusive: 0.554 [sensitive]
Cc1onc(-c2ccccc2)c1C(=O)Sc1ccc(C(F)(F)F)cn1,normalized growth,"locus YDL101C, strain DUN1, hits give low values",inconclusive: 0.716 [sensitive]
same,normalized growth,"locus YJL128C, strain PBS2, hits give low values",inconclusive: 0.816 [sensitive]
same,normalized growth,"locus YJL157C, strain FAR1, hits give low values",inconclusive: 0.517 [sensitive]
same,normalized growth,"locus YKL067W, strain YNK1, hits give low values",inconclusive: 0.543 [sensitive]
same,normalized growth,"locus YLR403W, strain SFP1, hits give low values",inconclusive: 0.595 [sensitive]
same,normalized growth,"locus YPL031C, strain PHO85, hits give low values",inconclusive: 0.524 [sensitive]
same,normalized growth,"locus YPL204W, strain HRR25, hits give low values",inconclusive: 0.64 [sensitive]
CCOC(=O)c1c(-c2ccc(F)cc2)csc1N,normalized growth,[3],inconclusive: 0.916 [sensitive]
O=C1c2cccc(O)c2C(=O)c2c(O)cccc21,normalized growth,"locus YLR370C, strain arc18, hits give low values",inconclusive: 0.893 [sensitive]
NC(N)=NC(N)=Nc1ccccc1C(F)(F)F,normalized growth,[4],inconclusive: 1.15 [resistant]
CC(C)NNC(=O)c1ccncc1,normalized growth,[1],inconclusive: 1.18 [resistant]
Oc1c(Br)cc(Br)cc1C=Nc1ccc(Sc2ccccc2)nc1Sc1ccccc1,normalized growth,"locus YFR019W, strain FAB1, hits give low values",inconclusive: 0.771 [sensitive]
Cc1nc2sccn2c(=O)c1CCN1CCC(=C(c2ccc(F)cc2)c2ccc(F)cc2)CC1,normalized growth,"locus YHR129C, strain ARP1, hits give low values",inconclusive: 0.908 [sensitive]
same,normalized growth,"locus YNL224C, strain SQS1, hits give low values",inconclusive: 1.09 [resistant]
C[N+](C)(C)CCOC(N)=O,normalized growth,"locus YJL154C, strain vps35, hits give low values",inconclusive: 0.503 [sensitive]
N#CCC(=O)c1cccc(CSc2ccccc2Cl)c1,normalized growth,"locus YFL029C, strain CAK1, hits give low values",inconclusive: 0.848 [sensitive]
same,normalized growth,"locus YKL101W, strain HSL1, hits give low values",inconclusive: 0.703 [sensitive]
same,normalized growth,"locus YNL161W, strain CBK1, hits give low values",inconclusive: 0.901 [sensitive]
same,normalized growth,[5],inconclusive: 0.798 [sensitive]
Cc1c(S(=O)(=O)c2ccc(Cl)cc2)csc1C(=O)NNc1cccc(Cl)c1,normalized growth,"locus YOR061W, strain CKA2, hits give low values",inconclusive: 0.589 [sensitive]
O=c1cccc2ccc(O)c(O)c2c1O,normalized growth,"locus YBR279W, strain paf1, hits give low values",inconclusive: 0.904 [sensitive]
same,normalized growth,[1],inconclusive: 1.17 [resistant]
CC(C)Cc1ccc(C(C)C(=O)Nc2nn(C)c3ccccc23)cc1 (centres undefined),normalized growth,"locus YDR052C, strain DBF4, hits give low values",inconclusive: 0.912 [sensitive]
Cc1cccc(Cl)c1/C=N\NC(N)=S,normalized growth,"locus YMR001C, strain CDC5, hits give low values",inconclusive: 0.888 [sensitive]
same,normalized growth,[5],inconclusive: 0.878 [sensitive]
same,normalized growth,"strain TSCII, hits give low values",inconclusive: 0.879 [sensitive]
O[N+]1=CC=CCC1=S.On1ccccc1=S.[Zn],normalized growth,"locus YOL012C, strain htz1",inconclusive: 0.2 [sensitive]
ClC1C(Cl)C(Cl)C(Cl)C(Cl)C1Cl (centres undefined),normalized growth,"locus YNL307C, strain MCK1, hits give low values",inconclusive: 0.886 [sensitive]
O=C(Nc1ccc([N+](=O)[O-])cc1Cl)c1cc(Cl)ccc1O,normalized growth,"locus YML032C, strain rad52, hits give low values",inconclusive: 1.13 [resistant]
NCCCCC(N)C(=O)NC(Cc1ccc(O)cc1)C(=O)NC(CCCCN)C(=O)O (stereo not drawn) (H-Lys-Tyr-Lys-OH; configuration not given here),normalized growth,[6],inconclusive: 0.928 [sensitive]
N#CC(C#N)=NNc1cc(C(F)(F)F)ccc1OCC(F)(F)F,normalized growth,"locus YNL222W, strain SSU72, hits give low values",inconclusive: 0.882 [sensitive]
CC(C)NCC(O)COc1cccc2[nH]ccc12 (centres undefined),normalized growth,"locus YIL073C, strain SPO22, hits give low values",inconclusive: 0.613 [sensitive]
same,normalized growth,[6],inconclusive: 0.93 [sensitive]
same,normalized growth,"locus YLL001W, strain dnm1, hits give low values",inconclusive: 0.859 [sensitive]
O=C(/C=N\Nc1ccccc1)Nc1ccccc1C(=O)O,normalized growth,[3],inconclusive: 0.865 [sensitive]
C[C@@H]1CC[C@H]2C(C)(C)C3CC12CC[C@@]3(C)O (some centres undefined),normalized growth,"locus YDR069C, strain doa4, hits give low values",inconclusive: 0.848 [sensitive]
Cc1oc(-c2ccccc2)cc1C(=O)N1CCN(c2ccc(C(F)(F)F)cn2)CC1,normalized growth,[4],inconclusive: 0.858 [sensitive]
C=CC1=C(C)/C(=C/c2[nH]c(Cc3[nH]c(/C=C4\NC(=O)C(C)=C4C=C)c(C)c3CCC(=O)O)c(CCC(=O)O)c2C)NC1=O,normalized growth,"locus YPR141C, strain kar3, hits give low values",inconclusive: 1.09 [resistant]
O=C(CSCc1c(Cl)cccc1Cl)NNC(=S)NC1CC2C=CC1C2 (centres undefined),normalized growth,"locus YEL061C, strain CIN8, hits give low values",inconclusive: 0.889 [sensitive]
CC(C)OC(=O)Nc1cc(Cl)cc(Cl)c1,normalized growth,"locus YHR030C, strain SLT2, hits give low values",inconclusive: 0.818 [sensitive]
Nc1ccc(Sc2cc(Cl)ccc2Cl)nc1,normalized growth,[3],inconclusive: 0.881 [sensitive]
CCCN(CC1CC1)c1nc(C)nc(Nc2c(Cl)cc(Cl)cc2Cl)c1Cl,normalized growth,[2],inconclusive: 1.13 [resistant]
CC[C@H]1CN2CCc3cc(OC)c(OC)cc3C2C[C@@H]1CC1NCCc2cc(OC)c(OC)cc21 (some centres undefined),normalized growth,[1],inconclusive: 1.14 [resistant]
